Among all 16,000 compounds or so, about 120 (0.75%) were called active. Inconclusive results (about 4%) are left out. Calls come from the whole dose curve; as a rule, active = well fitted inhibition curve with a large enough effect; inconclusive = small, poorly fitted or top-dose-only effect; inactive = no such curve, though single readings can be large or run the other way. The list shows a part of the results.
target: Rap guanine nucleotide exchange factor 3 (Homo sapiens) (UniProt O95398); assay: Validation qHTS for antagonist of cAMP-regulated guanine nucleotide exchange factor 3 (EPAC1); details: EPAC1 Rap1B-BODIPY-GDP exchange, fluorescence; series mostly up to 150 µM; activity change, negative = inhibition: at the top concentration;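 note: plate controls were DMSO for no effect and ATA control for full effect; nearly all actives have a fitted effect of over 75% in size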
Method in brief: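 Nucleotide exchange followed as fluorescence loss when BODIPY-GDP leaves Rap1B (480 nm excitation, 540 nm emission), read at 5 min intervals over 30 min. Reaction: 100 nM EPAC1, 250 nM RAP1B-BODIPY-GDP, 50 uM GDP; ATA and DMSO define normalization.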

Chain of UniProt O95398 (O95398 whole entry, looked up): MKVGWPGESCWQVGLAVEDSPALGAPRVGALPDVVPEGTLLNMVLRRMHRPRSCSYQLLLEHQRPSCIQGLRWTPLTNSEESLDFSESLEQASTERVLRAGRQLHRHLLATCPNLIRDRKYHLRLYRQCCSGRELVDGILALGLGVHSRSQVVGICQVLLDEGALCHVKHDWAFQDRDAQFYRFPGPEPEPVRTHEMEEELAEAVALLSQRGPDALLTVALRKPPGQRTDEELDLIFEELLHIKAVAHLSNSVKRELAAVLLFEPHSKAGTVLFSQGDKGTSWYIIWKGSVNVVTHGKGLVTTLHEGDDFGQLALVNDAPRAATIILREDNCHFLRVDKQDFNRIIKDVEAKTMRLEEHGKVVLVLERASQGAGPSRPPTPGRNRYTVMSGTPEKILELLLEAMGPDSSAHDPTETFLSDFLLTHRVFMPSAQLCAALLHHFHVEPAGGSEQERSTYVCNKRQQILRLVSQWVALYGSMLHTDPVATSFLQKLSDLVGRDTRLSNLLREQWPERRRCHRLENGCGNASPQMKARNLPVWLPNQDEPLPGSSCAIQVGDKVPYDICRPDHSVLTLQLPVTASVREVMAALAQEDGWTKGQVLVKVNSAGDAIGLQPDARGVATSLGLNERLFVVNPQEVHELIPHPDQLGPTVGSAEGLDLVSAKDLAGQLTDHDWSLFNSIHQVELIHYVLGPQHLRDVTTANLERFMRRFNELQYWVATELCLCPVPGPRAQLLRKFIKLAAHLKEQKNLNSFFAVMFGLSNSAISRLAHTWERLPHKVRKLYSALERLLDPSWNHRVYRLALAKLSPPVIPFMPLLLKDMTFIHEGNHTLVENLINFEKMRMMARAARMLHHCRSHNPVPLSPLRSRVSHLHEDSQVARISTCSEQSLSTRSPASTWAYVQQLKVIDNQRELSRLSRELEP

Activity change, negative = inhibition, inactive:
C=C1C2CC[C@@]3(C)C(c4ccoc4)OC(=O)C[C@@]13OC1CC(=O)C(C)(C)C(CC(=O)OC)[C@]12C (stereo not given in full) 1.7%
COc1cc(=O)n2c(c1C(=O)N(C)Cc1nonc1C)CCN(C(=O)c1cc(C)cc(C)c1)CC2 -5.49%
Clc1ccccc1-c1nc(N2CCNCC2)c2ccccc2n1 22.3%
CC(=O)[C@@H]1[C@H]2[C@H](C(=O)[C@H]3OC[C@@H]2O3)[C@H]2C=Cc3ccccc3N21 12.5%
CCC1COCCS(=O)(=O)N1Cc1ccc(C)cc1 (stereo not given) 0.883%
N#Cc1ccc(CN2CCCC3(CCN(S(=O)(=O)c4ccccc4)CC3)C2)cc1 -1.49%
COc1ccc2c(c1)CCc1cnc(-n3ncc(C(=O)N4CCN(CCO)CC4)c3C3CC3)nc1-2 14.9%
Nc1ccc(O)c([N+](=O)[O-])c1 -15.1% [at 320 µM]
CCO/C([O-])=N/c1c[n+](N2CCOCC2)no1
O=C(Nc1cccc(F)c1)N1CC[C@@]2(CCCNC2)C1 32.5%
CCc1c(C)[nH]c2c1C(=O)C(CN1CCOCC1)CC2 (stereo not given)
CC(=O)OCC1OC(Oc2cc(OC(C)=O)c3c(=O)cc(-c4ccc(OC(C)=O)c(OC(C)=O)c4)oc3c2)C(OC(C)=O)C(OC(C)=O)C1OC(C)=O (stereo not given) -16.4%
COc1ccc(-c2nc3cnc(N4CCN(C)CC4)nc3n(Cc3cccs3)c2=O)cc1 27.9%
NC(=O)CNCCC(c1ccccc1)c1ccccc1 15.8% [at 75.8 µM]
COc1cccc(N2[C@@H](CC(C)=O)c3cc(C(F)(F)F)ccc3S2(=O)=O)c1 -4.99%
CC(O)C(O)[C@H]1CNc2nc(N)[nH]c(=O)c2N1 (stereo not given in full) 5.84% [at 75.8 µM]
CCCCCC#CCC#CCC#CCC#CCCCC(=O)O
CC1=C(C(=O)O)N2C(=O)C(NC(=O)C(N)c3ccc(O)cc3)C2SC1 (stereo not given) 9.48%
CN(C)c1ccc(-c2cncnc2NCc2cccnc2)cc1 0.696%
NC[C@@H]1CC[C@@H](N)[C@@H](O[C@H]2[C@H](O)[C@@H](O[C@H]3O[C@H](CO)[C@@H](O)[C@H](N)[C@H]3O)[C@H](N)C[C@@H]2N)O1 23.5%
CN1CCN(c2ncc3nc(-c4ccccc4)c(=O)n(Cc4cccs4)c3n2)CC1 -3.53%
Cc1noc(C)c1C(=O)N1CCC2(CC1)CCN(C(c1ccccc1)c1ccccc1)CC2 11.1%
COCCn1c(=O)c(-c2ccc(OC)cc2)nc2cnc(Nc3cccc(OC)c3)nc21 36.3%
CC(=O)OC1CC2C(C)(C)C(=O)C3OC3[C@]2(C)C2CC[C@@]3(C)C(c4ccoc4)OC(=O)C4OC43[C@]12C (stereo not given in full) -2.43%
CNC(=O)CN(CCN(CCN(CC(=O)[O-])CC(=O)NC)CC(=O)[O-])CC(=O)[O-].O.[Gd+3]
Cn1cc(C(F)(F)F)nc1-c1ccc(OC[C@@H](O)CNCCOc2ccc(O)c(C(N)=O)c2)cc1 7.86%
CC1(C)CC[C@]2(C(=O)O)C(O)C[C@@]3(C)C(=CCC4[C@@]5(C)CCC(O)C(C)(C)C5CC[C@@]43C)C2C1 (stereo not given in full) 16.6%
O=C(/C=C/c1ccc(O)c(O)c1)O[C@@H]1C[C@@](OC(=O)/C=C/c2ccc(O)c(O)c2)(C(=O)O)C[C@@H](O)[C@@H]1O -11.1%
CN1CCCC2(CCN(C(=O)c3cccn3C)CC2)C1 8.06%
CC(C)=CCC/C(C)=C/C=C/C(C)=C/C=C/C(C)=C/C=C/C=C(C)/C=C/C=C(C)/C=C/C=C(\C)CCC=C(C)C 18.1%
CC1=C(/C=C/C(C)=C/C=C/C(C)=C/C(=O)O)C(C)(C)CCC1
COCC(=O)Nc1cc(C(=O)N2CCCOc3c(cccc3OC)C2)c2c(c1)nc(C1CCC1)n2C -6.55%
CCNc1ncc2nc(-c3cccs3)c(=O)n(CCC#N)c2n1 3.25%
NCC1O[C@@H](OC2C(N)CC(N)C(O)C2O[C@@H]2OC(CO)C(O)C2O)C(N)C(O)C1O (stereo not given in full) -1.69%
O=c1[nH]c(=O)n([C@@H]2O[C@H](CO)[C@@H](O)[C@H]2O)cc1Br -6.58%
Cc1cnc(C)c(-c2cc(F)cc3c2OC(CNC(=O)C2CCOC2)C3)n1 (stereo not given) -0.911%
COc1ccc2ccc(=O)oc2c1CC=C(C)C 2.22%
Cc1cccc(CNc2nc(-c3ccoc3)nc3ccccc23)c1 10.8%
OCCN1CCN(Cc2ccc3c(c2)CN(Cc2ccc4ccccc4c2)CCO3)CC1 8.36%
CC1(C)S[C@@H]2[C@H](NC(=O)[C@@H](NC(=O)N3CCNC3=O)c3ccccc3)C(=O)N2[C@H]1C(=O)O 17.9% [at 75.8 µM]
COc1cc(=O)n2c(c1C(=O)NCc1ccc3c(c1)OCO3)CCN(C(=O)c1cccc(F)c1)CC2 18.4%
CC(=O)Oc1ccccc1C(=O)O
O=C(c1ccco1)N1CCC[C@@]2(CCN(c3ccccc3)C2)C1 8.71%
O=C(O)[C@H]1NCCC[C@H]1C(=O)O 8.77% [at 75.8 µM]
c1ccc2c(-n3ccnc3)nc(-c3ccoc3)nc2c1 13%
NCCC(=O)[N-][C@@H](Cc1cnc[nH]1)C(=O)O.[Zn] 38.8%
COCC(=O)Nc1cc(C(=O)N[C@H]2CCCCNC2=O)c2c(c1)nc(-c1ccncc1)n2C -18.6%
Cc1cc(C(=O)NCC2Cc3cccc(-c4cncnc4)c3O2)c(C)o1 (stereo not given) 13.9%
COc1cc(Cl)c(CN2CCOc3ccc(CN4CCCCC4CO)cc3C2)cc1OC (stereo not given) 25.7%
NCCCCN=C(N)N
O=c1c(-c2ccc(F)c(F)c2)nc2cncnc2n1Cc1ccc(F)cc1 -10.2%
CNS(=O)(=O)CCc1ccc2[nH]cc(C3CCN(C)CC3)c2c1 27.8%
O=c1c(-c2ccccc2)nc2cncnc2n1C1CC1 4.89%
OC(CN1CCC(Cc2ccc(F)cc2)CC1)c1ccc(Cl)cc1 (stereo not given)
CC(C)NC[C@@H](O)c1ccc(O)c(O)c1 7.31% [at 75.8 µM]
CCOC(=O)[C@@]12C[C@@H]1/C(=N/O)c1ccccc1O2 2.32%
NC(Cc1cc(I)c(Oc2cc(I)c(O)c(I)c2)c(I)c1)C(=O)O (stereo not given) -5.72%
Cc1nc2sccn2c1CN1CCOc2ccc(CN3CCN(c4ccc(F)cc4)CC3)cc2C1 2.99%
C[C@@H](CN=[N+]=[N-])CN1CC[C@H](NC(=O)OCc2ccccc2)CCC1=O 16.9%
COc1cc(=O)n2c(c1C(=O)N(C)Cc1ccsc1)CCN(Cc1cnn(C)c1C)CC2 5.04%
CCc1nc2cc(C(=O)N(C)CC3COCCO3)cc(NC(=O)c3ccccc3OC)c2n1C (stereo not given) 6.57%
O=S(=O)(c1ccccc1)N1CCC2(CCN(c3ncccn3)CC2)CC1 -5.12%
CCC1(C2CCN(Cc3cc4ccccc4o3)CC2)NC(=O)N(CC2COc3ccccc3O2)C1=O (stereo not given) -16.9%
Cc1cnc(CNc2ncncc2-c2ccccc2C)cn1 -0.418%
CN(C)c1ncc2nc(-c3ccc(F)cc3)c(=O)n(C[C@H]3CCCO3)c2n1 5.37%
C=CCN1C(=O)C(CC(C)C)NC1=S (stereo not given)
Cc1ccc(C(=O)Nc2cccc(-c3nc(CNC(=O)c4ccccc4-n4cccn4)c(C)o3)c2)s1 8.84%
FC(F)(F)c1ccccc1-c1nc(NCc2cccnc2)c2ccccc2n1 2.68%
CC(O)[C@H]1CC[C@H]2[C@@H]3CC[C@@H]4C[C@@H](O)CC[C@]4(C)[C@H]3CC[C@]12C (stereo not given in full) 5.4%
CC(=O)N1CCN(c2ccc(OC[C@H]3CO[C@](Cn4ccnc4)(c4ccc(Cl)cc4Cl)O3)cc2)CC1
O=C(c1ccncc1)N1CCC2(CCCN(Cc3ccccc3)C2)CC1 18.5%
CS(=O)(=O)N1CCC2(CC1)CN(c1ccccc1)C2 -5.33%
CCCCCCC[n+]1ccc(/C=C/c2c(C)[nH]c3ccccc23)cc1 54%
CC(=O)[C@H]1CC[C@H]2[C@@H]3CCC4=CC(=O)CC[C@]4(C)[C@H]3CC[C@]12C
CC(=O)OC1CC[C@@]2(C)C3CC[C@@]4(C)C(CC5O[C@@]6(CCC(C)CO6)C(C)C54)C3CC[C@@H]2C1 (stereo not given in full) -12.7%
O=c1cnc2cncnc2n1Cc1ccccc1 11.2%
O=C(CCCCCCCCC#CI)Oc1ccccc1 27.5%
COc1cc(=O)n2c(c1C(=O)N(C)Cc1nonc1C)CCN(Cc1ccccc1Cl)CC2 17%
COc1ccc(C(=O)N2CCC3(CC2)CN(Cc2ccc(C#N)cc2)C3)cc1 -7.07%
C[C@@H]1CCC(=O)N(C[C@@H](C)CSc2ccc(Br)cc2)CC1 -14.1%
COCC1CCCN(c2nc(CN3CCN(C(=O)c4ccco4)CC3)nc3ccccc23)C1 (stereo not given) -0.794%
COC(=O)C[C@H]1c2cc(C(F)(F)F)ccc2S(=O)(=O)N1C1CCCCC1 -6.48%
C=CCCCCCCCCCCCc1ccco1 -11.1%
CCOC(=O)c1ccc(-c2c(-c3ccc4c(c3)OCO4)noc2-c2ccsc2)cc1F 0.926%
CN[C@@H]1[C@@H](O)[C@@H](O[C@@H]2[C@@H](O)[C@H](O[C@H]3O[C@H](CN)[C@@H](O)[C@H](O)[C@H]3O)[C@@H](N)C[C@H]2NC(=O)C(O)CN)OC[C@]1(C)O (stereo not given in full) 23.6%
F[Si-2](F)(F)(F)(F)F -7.94%
COc1ccccc1CN1CCOc2ccc(C(C)(O)CN(C)C)cc2C1 (stereo not given) 5.61%
O=C(O)CCCCC(=O)O 0.379%
C[C@H]1OC(=O)CC[C@@H]2[C@]1(C)CCC1[C@@]2(C)CC[C@@]2(C)C3CC(C)(C)CC[C@]3(CO)CC[C@]12C (stereo not given in full) 22.4%
CN1CCN(c2ncc3nc(-c4cn(C)c5ccccc45)c(=O)n(Cc4cccs4)c3n2)CC1 13.2%
Cc1ccc(CN2[C@H](C)[C@H](c3ccccc3)OCCS2(=O)=O)cc1 -14.1%
CN(CCO)C(=O)c1cn(C2CCN(Cc3ccc4ccccc4c3)CC2)nn1 4.33%
CCCCCCCC(=O)OC[C@H](CO)OC(=O)CCCCCCC -8.3% [at 15.3 µM]
C[C@H]1C[C@@H]2[C@@H]([C@@H](O)C[C@@]3(C)[C@H]2CC[C@]3(O)C(=O)CO)[C@@]2(C)C=CC(=O)C=C12 21.1% [at 75.8 µM]
O=C(/C=C/c1ccccc1)OC1CC(O)C2(O)C=CO[C@@H](OC3OC(CO)C(O)C(O)C3O)C12 (stereo not given in full) -6.68%

Source: PubChem BioAssay AID1645882 (National Center for Advancing Translational Sciences (NCATS), 2021)
